From patent publication US20240190896A1, “SMTP-7 DERIVATIVE AND USE THEREOF” (Shanghai Senhui Medicine Co., Ltd., priority 2021, published 2024) come the findings set out here.

Assay [1] has as its system cerebral infarction model (embolic stroke model). Briefly: Thromboembolism in rats: neurological function scoring. Format: in vivo, rat. Particulars: for Behavioral scores, before administration: score 1 h after model; for behavior compared to the model group (in words): 10 mg/kg. On the procedure: The catheter was carefully withdrawn. […] Each group included 10 rats. […] The extent of behavioral disorders in the animals was observed and scored before administration and 24 h after treatment. The scoring criteria were as follows: [table] The metrology data are expressed as x±s, and pairwise comparisons were made using T-TEST; P<0.05 indicates a statistical difference.

For assay [2] the test system is unchanged. Briefly: Thromboembolism in rats: cerebral infarction range assay (TTC). Type of assay: in vivo, rat. The conditions noted are these: for Infarction area %: 24 h after administration; for cerebral infarction area compared to the model group (in words): rat, in vivo. On the procedure:
The catheter was carefully withdrawn. […] Each group included 10 rats. […] The brain tissue sections were placed into a 2% solution of tetrazolium chloride (TTC) and incubated at 37° C. for 5 min. The infarcted tissues were white, and the non-infarcted tissues were red. The cerebral infarction area was measured using Image J software, and the percentage of the infarction area to the total brain area was calculated. Percentage of cerebral infarction area %=cerebral infarction area/total brain area×100% The metrology data are expressed as x±s, and pairwise comparisons were made using T-TEST; P<0.05 indicates a statistical difference.

As for `[2H]C([2H])(CC[C@@H](C(=O)O)N1Cc2c(cc(O)c3c2O[C@@](C)(CC/C=C(\C)CCC=C(C)C)[C@@H](O)C3)C1=O)N1Cc2c(cc(O)c3c2O[C@@](C)(CC/C=C(\C)CCC=C(C)C)[C@@H](O)C3)C1=O` [Compound 1, δ-Deutero SMTP-7], the entries for the “Behavioral scores, 24 h after administration” value in assay [1] (5 mg/kg i.v.), in assay [1] (10 mg/kg i.v.) and in assay [1] (20 mg/kg i.v.) were 7.1 ± 1.8, 6.5 ± 2.5 and 6.6 ± 2.2, respectively. Further, the “Behavioral scores, before administration” value was 10.5 ± 0.5 in assay [1] (5 mg/kg i.v.), 10.2 ± 0.4 in assay [1] (10 mg/kg i.v.) and 10.2 ± 0.4 in assay [1] (20 mg/kg i.v.). In assay [1], the “behavior compared to the model group (in words)” value is on record as “showed improvements compared to the model group”. Also, the values for the Infarction area % in assay [2] (5 mg/kg i.v.), in assay [2] (10 mg/kg i.v.) and in assay [2] (20 mg/kg i.v.) were 2.47 ± 2.21 %, 1.38 ± 0.9 % and 1.7 ± 1.1 %, respectively. Moreover, the “cerebral infarction area compared to the model group (in words)” value in assay [2] is listed as “significant improvements”.
Consider `CC(C)=CCC/C(C)=C/CC[C@]1(C)Oc2c(c(O)cc3c2CN(CCC[C@@H](C(=O)O)N2Cc4c(cc(O)c5c4O[C@@](C)(CC/C=C(\C)CCC=C(C)C)[C@@H](O)C5)C2=O)C3=O)C[C@@H]1O` [SMTP-7, Stachybotrys microspore triprenyl phenol-7], for which the “behavior compared to the model group (in words)” value in assay [1] is recorded as “showed improvements compared to the model group”. Moreover, in assay [1] (10 mg/kg i.v.), the “Behavioral scores, 24 h after administration” value is listed as 6.3 ± 2.4 and the “Behavioral scores, before administration” value is reported as 10.2 ± 0.4. This compound also had an Infarction area % in assay [2] (10 mg/kg i.v.) of 1.9 ± 2.35 %. Also, the “cerebral infarction area compared to the model group (in words)” value in assay [2] is given as “significant improvements”.
